# According to the supplement of paper PMC8728848:
# This is one part of the list.
# B1: SGC, Q9M345 (protein)
# chain: QNLNFTYNGFHPPLTDISLQGLATVTPNGLLKLTNTSVQKTGHAFCTERIRFKDSQNGNVSSFSTTFVFAIHSQIPTLSGHGIAFVVAPTLGLPFALPSQYIGLFNISNNGNDTNHIFAVEFDTIQSSEFGDPNDNHVGIDLNGLRSANYSTAGYRDDHDKFQNLSLISRKRIQVWIDYDNRSHRIDVTVAPFDSDKPRKPLVSYVRDLSSILLEDMYVGFSSATGSVLSEHFLVGWSFRLNGEAPMLSLSKLPKLPRFEPRRIS
# Columns and labels:
# Assay in all cases: glycan array binding signal (z-score within array); higher = stronger binding
# Conditions in all cases: glycan notation: IUPAC condensed, linker removed
# [1] = molecular target: GlcNAc(a1-3)Gal(b1-4)GlcNAc
# In short: (§1)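 The binding signal is a Z-score computed within each array and averaged over linkers. Arrays of the same protein sequence at different concentrations or buffers were also averaged together. Data originate from 3228 arrays in the Consortium for Functional Glycomics database, kept only where the protein sequence was available.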
# [2] = molecular target: GlcNAc(a1-4)Gal(b1-3)GlcNAc
# In short: as §1
# [3] = molecular target: GlcNAc(a1-4)Gal(b1-4)GalNAc
# In short: as §1
# [4] = molecular target: GlcNAc(a1-4)Gal(b1-4)GlcNAc
# In short: as §1
# [5] = molecular target: GlcNAc(a1-4)Gal(b1-4)GlcNAc(b1-3)Gal(b1-4)Glc
# In short: as §1
# [6] = molecular target: GlcNAc(a1-4)Gal(b1-4)GlcNAc(b1-3)Gal(b1-4)GlcNAc
# In short: as §1
# [7] = molecular target: GlcNAc(a1-4)Gal(b1-4)GlcNAc(b1-3)Gal(b1-4)GlcNAc(b1-3)Gal(b1-4)GlcNAc
# In short: as §1
# [8] = molecular target: GlcNAc(a1-4)Gal(b1-4)GlcNAc(b1-3)Gal(b1-4)[Fuc(a1-3)]GlcNAc(b1-3)Gal(b1-4)[Fuc(a1-3)]GlcNAc
# In short: as §1
# [9] = molecular target: GlcNAc(a1-6)Gal(b1-4)GlcNAc
# In short: as §1
# [10] = molecular target: GlcNAc(b1-2)Gal(b1-3)GalNAc
# In short: as §1
# [11] = molecular target: GlcNAc(b1-2)Man(a1-3)[GlcNAc(b1-2)Man(a1-6)]Man(b1-4)GlcNAc(b1-4)GlcNAc
# In short: as §1
# [12] = molecular target: GlcNAc(b1-2)Man(a1-3)[GlcNAc(b1-2)Man(a1-6)]Man(b1-4)GlcNAc(b1-4)[Fuc(a1-6)]GlcNAc
# In short: as §1
# [13] = molecular target: GlcNAc(b1-2)Man(a1-3)[GlcNAc(b1-4)][GlcNAc(b1-2)Man(a1-6)]Man(b1-4)GlcNAc(b1-4)GlcNAc
# In short: as §1
# [14] = molecular target: GlcNAc(b1-2)Man(a1-3)[GlcNAc(b1-4)][GlcNAc(b1-2)Man(a1-6)]Man(b1-4)GlcNAc(b1-4)[Fuc(a1-6)]GlcNAc
# In short: as §1
# [15] = molecular target: GlcNAc(b1-2)[GlcNAc(b1-4)]Man(a1-3)[GlcNAc(b1-2)Man(a1-6)]Man(b1-4)GlcNAc(b1-4)GlcNAc
# In short: as §1
# [16] = molecular target: GlcNAc(b1-2)[GlcNAc(b1-4)]Man(a1-3)[GlcNAc(b1-4)][GlcNAc(b1-2)Man(a1-6)]Man(b1-4)GlcNAc(b1-4)GlcNAc
# In short: as §1
# [17] = molecular target: GlcNAc(b1-2)[GlcNAc(b1-4)]Man(a1-3)[GlcNAc(b1-4)][GlcNAc(b1-2)[GlcNAc(b1-6)]Man(a1-6)]Man(b1-4)GlcNAc(b1-4)GlcNAc
# In short: as §1
# [18] = molecular target: GlcNAc(b1-2)[GlcNAc(b1-4)]Man(a1-3)[GlcNAc(b1-4)][GlcNAc(b1-2)[GlcNAc(b1-6)]Man(a1-6)]Man(b1-4)GlcNAc(b1-4)[Fuc(a1-6)]GlcNAc
# In short: as §1
# [19] = molecular target: GlcNAc(b1-2)[GlcNAc(b1-6)]Man(a1-6)[GlcNAc(b1-2)Man(a1-3)]Man(b1-4)GlcNAc(b1-4)GlcNAc
# In short: as §1
# [20] = molecular target: GlcNAc(b1-2)[GlcNAc(b1-6)]Man(a1-6)[GlcNAc(b1-2)Man(a1-3)]Man(b1-4)GlcNAc(b1-4)[Fuc(a1-6)]GlcNAc
# In short: as §1
# [21] = molecular target: GlcNAc(b1-2)[GlcNAc(b1-6)]Man(a1-6)[GlcNAc(b1-4)][GlcNAc(b1-2)Man(a1-3)]Man(b1-4)GlcNAc(b1-4)GlcNAc
# In short: as §1
# GlcNAc(b1-3)Fuc = molecular target: GlcNAc(b1-3)Fuc
# In short: as §1
# GlcNAc(b1-3)Gal = molecular target: GlcNAc(b1-3)Gal
# In short: as §1
# [22] = molecular target: GlcNAc(b1-3)Gal(b1-3)GalNAc
# In short: as §1
# GlcNAc(b1-3)Gal(b1-4)Glc = molecular target: GlcNAc(b1-3)Gal(b1-4)Glc
# In short: as §1
# [23] = molecular target: GlcNAc(b1-3)Gal(b1-4)GlcNAc
# In short: as §1
# [24] = molecular target: GlcNAc(b1-3)Gal(b1-4)GlcNAc(b1-2)Man(a1-3)[GlcNAc(b1-3)Gal(b1-4)GlcNAc(b1-2)Man(a1-6)]Man(b1-4)GlcNAc(b1-4)GlcNAc
# In short: as §1
# [25] = molecular target: GlcNAc(b1-3)Gal(b1-4)GlcNAc(b1-2)Man(a1-3)[GlcNAc(b1-3)Gal(b1-4)GlcNAc(b1-2)Man(a1-6)]Man(b1-4)GlcNAc(b1-4)[Fuc(a1-6)]GlcNAc
# In short: as §1
# [26] = molecular target: GlcNAc(b1-3)Gal(b1-4)GlcNAc(b1-2)[GlcNAc(b1-3)Gal(b1-4)GlcNAc(b1-6)]Man(a1-6)[GlcNAc(b1-3)Gal(b1-4)GlcNAc(b1-2)Man(a1-3)]Man(b1-4)GlcNAc(b1-4)GlcNAc
# In short: as §1
# [27] = molecular target: GlcNAc(b1-3)Gal(b1-4)GlcNAc(b1-3)Gal(b1-4)GlcNAc
# In short: as §1
# [28] = molecular target: GlcNAc(b1-3)Gal(b1-4)GlcNAc(b1-3)Gal(b1-4)GlcNAc(b1-2)Man(a1-3)[GlcNAc(b1-3)Gal(b1-4)GlcNAc(b1-3)Gal(b1-4)GlcNAc(b1-2)Man(a1-6)]Man(b1-4)GlcNAc(b1-4)GlcNAc
# In short: as §1
# [29] = molecular target: GlcNAc(b1-3)Gal(b1-4)GlcNAc(b1-3)Gal(b1-4)GlcNAc(b1-2)Man(a1-3)[GlcNAc(b1-3)Gal(b1-4)GlcNAc(b1-3)Gal(b1-4)GlcNAc(b1-2)Man(a1-6)]Man(b1-4)GlcNAc(b1-4)[Fuc(a1-6)]GlcNAc
# In short: as §1
# [30] = molecular target: GlcNAc(b1-3)Gal(b1-4)GlcNAc(b1-3)Gal(b1-4)GlcNAc(b1-2)[GlcNAc(b1-3)Gal(b1-4)GlcNAc(b1-3)Gal(b1-4)GlcNAc(b1-6)]Man(a1-6)[GlcNAc(b1-3)Gal(b1-4)GlcNAc(b1-3)Gal(b1-4)GlcNAc(b1-2)Man(a1-3)]Man(b1-4)GlcNAc(b1-4)[Fuc(a1-6)]GlcNAc
# In short: as §1
# [31] = molecular target: GlcNAc(b1-3)Gal(b1-4)GlcNAc(b1-3)Gal(b1-4)GlcNAc(b1-3)Gal(b1-4)GlcNAc(b1-2)Man(a1-3)[GlcNAc(b1-3)Gal(b1-4)GlcNAc(b1-3)Gal(b1-4)GlcNAc(b1-3)Gal(b1-4)GlcNAc(b1-2)Man(a1-6)]Man(b1-4)GlcNAc(b1-4)GlcNAc
# In short: as §1
# [32] = molecular target: GlcNAc(b1-3)Gal(b1-4)GlcNAc(b1-3)Gal(b1-4)GlcNAc(b1-3)Gal(b1-4)GlcNAc(b1-2)Man(a1-3)[GlcNAc(b1-3)Gal(b1-4)GlcNAc(b1-3)Gal(b1-4)GlcNAc(b1-3)Gal(b1-4)GlcNAc(b1-2)Man(a1-6)]Man(b1-4)GlcNAc(b1-4)[Fuc(a1-6)]GlcNAc
# In short: as §1
# [33] = molecular target: GlcNAc(b1-3)Gal(b1-4)GlcNAc(b1-3)Gal(b1-4)GlcNAc(b1-3)Gal(b1-4)GlcNAc(b1-2)[GlcNAc(b1-3)Gal(b1-4)GlcNAc(b1-3)Gal(b1-4)GlcNAc(b1-3)Gal(b1-4)GlcNAc(b1-6)]Man(a1-6)[GlcNAc(b1-3)Gal(b1-4)GlcNAc(b1-3)Gal(b1-4)GlcNAc(b1-3)Gal(b1-4)GlcNAc(b1-2)Man(a1-3)]Man(b1-4)GlcNAc(b1-4)[Fuc(a1-6)]GlcNAc
# In short: as §1
# [34] = molecular target: GlcNAc(b1-3)Gal(b1-4)GlcNAc(b1-3)Gal(b1-4)GlcNAc(b1-3)Gal(b1-4)GlcNAc(b1-3)Gal(b1-4)GlcNAc(b1-2)Man(a1-3)[GlcNAc(b1-3)Gal(b1-4)GlcNAc(b1-3)Gal(b1-4)GlcNAc(b1-3)Gal(b1-4)GlcNAc(b1-3)Gal(b1-4)GlcNAc(b1-2)Man(a1-6)]Man(b1-4)GlcNAc(b1-4)GlcNAc
# In short: as §1
# [35] = molecular target: GlcNAc(b1-3)Gal(b1-4)GlcNAc(b1-3)Gal(b1-4)GlcNAc(b1-3)Gal(b1-4)GlcNAc(b1-3)Gal(b1-4)GlcNAc(b1-2)Man(a1-3)[GlcNAc(b1-3)Gal(b1-4)GlcNAc(b1-3)Gal(b1-4)GlcNAc(b1-3)Gal(b1-4)GlcNAc(b1-3)Gal(b1-4)GlcNAc(b1-2)Man(a1-6)]Man(b1-4)GlcNAc(b1-4)[Fuc(a1-6)]GlcNAc
# In short: as §1
binder,measurement,setting,value
B1,glycan array binding signal (z-score),[1],-0.387
same,glycan array binding signal (z-score),[2],-0.386
same,glycan array binding signal (z-score),[3],-0.324
same,glycan array binding signal (z-score),[4],-0.317
same,glycan array binding signal (z-score),[5],-0.322
same,glycan array binding signal (z-score),[6],-0.416
same,glycan array binding signal (z-score),[7],-0.351
same,glycan array binding signal (z-score),[8],-0.321
same,glycan array binding signal (z-score),[9],-0.344
same,glycan array binding signal (z-score),[10],-0.402
same,glycan array binding signal (z-score),[11],-0.307
same,glycan array binding signal (z-score),[12],-0.322
same,glycan array binding signal (z-score),[13],-0.37
same,glycan array binding signal (z-score),[14],-0.379
same,glycan array binding signal (z-score),[15],-0.367
same,glycan array binding signal (z-score),[16],-0.354
same,glycan array binding signal (z-score),[17],-0.356
same,glycan array binding signal (z-score),[18],-0.381
same,glycan array binding signal (z-score),[19],-0.353
same,glycan array binding signal (z-score),[20],-0.375
same,glycan array binding signal (z-score),[21],-0.322
same,glycan array binding signal (z-score),GlcNAc(b1-3)Fuc,-0.337
same,glycan array binding signal (z-score),GlcNAc(b1-3)Gal,-0.392
same,glycan array binding signal (z-score),[22],-0.357
same,glycan array binding signal (z-score),GlcNAc(b1-3)Gal(b1-4)Glc,-0.404
same,glycan array binding signal (z-score),[23],-0.367
same,glycan array binding signal (z-score),[24],-0.412
same,glycan array binding signal (z-score),[25],-0.26
same,glycan array binding signal (z-score),[26],0.835
same,glycan array binding signal (z-score),[27],-0.38
same,glycan array binding signal (z-score),[28],-0.292
same,glycan array binding signal (z-score),[29],-0.198
same,glycan array binding signal (z-score),[30],-0.236
same,glycan array binding signal (z-score),[31],-0.396
same,glycan array binding signal (z-score),[32],-0.265
same,glycan array binding signal (z-score),[33],-0.294
same,glycan array binding signal (z-score),[34],-0.325
same,glycan array binding signal (z-score),[35],-0.308
